Measurements: publication PMC4336329 (PLoS ONE, 2015)
In all, about 310,000 compounds went through this assay and about 2,200 (0.71%) showed an effect of 50% or more. The effect is printed as a negative number. Some of the results follow.

Each compound was assayed against human ether-à-go-go-related gene (hERG) potassium channel (human, UniProt Q12809) (assay: primary screen, population patch clamp on CHO cells stably expressing hERG).
human ether-à-go-go-related gene (hERG) potassium channel, sequence (Q12809 whole entry, looked up): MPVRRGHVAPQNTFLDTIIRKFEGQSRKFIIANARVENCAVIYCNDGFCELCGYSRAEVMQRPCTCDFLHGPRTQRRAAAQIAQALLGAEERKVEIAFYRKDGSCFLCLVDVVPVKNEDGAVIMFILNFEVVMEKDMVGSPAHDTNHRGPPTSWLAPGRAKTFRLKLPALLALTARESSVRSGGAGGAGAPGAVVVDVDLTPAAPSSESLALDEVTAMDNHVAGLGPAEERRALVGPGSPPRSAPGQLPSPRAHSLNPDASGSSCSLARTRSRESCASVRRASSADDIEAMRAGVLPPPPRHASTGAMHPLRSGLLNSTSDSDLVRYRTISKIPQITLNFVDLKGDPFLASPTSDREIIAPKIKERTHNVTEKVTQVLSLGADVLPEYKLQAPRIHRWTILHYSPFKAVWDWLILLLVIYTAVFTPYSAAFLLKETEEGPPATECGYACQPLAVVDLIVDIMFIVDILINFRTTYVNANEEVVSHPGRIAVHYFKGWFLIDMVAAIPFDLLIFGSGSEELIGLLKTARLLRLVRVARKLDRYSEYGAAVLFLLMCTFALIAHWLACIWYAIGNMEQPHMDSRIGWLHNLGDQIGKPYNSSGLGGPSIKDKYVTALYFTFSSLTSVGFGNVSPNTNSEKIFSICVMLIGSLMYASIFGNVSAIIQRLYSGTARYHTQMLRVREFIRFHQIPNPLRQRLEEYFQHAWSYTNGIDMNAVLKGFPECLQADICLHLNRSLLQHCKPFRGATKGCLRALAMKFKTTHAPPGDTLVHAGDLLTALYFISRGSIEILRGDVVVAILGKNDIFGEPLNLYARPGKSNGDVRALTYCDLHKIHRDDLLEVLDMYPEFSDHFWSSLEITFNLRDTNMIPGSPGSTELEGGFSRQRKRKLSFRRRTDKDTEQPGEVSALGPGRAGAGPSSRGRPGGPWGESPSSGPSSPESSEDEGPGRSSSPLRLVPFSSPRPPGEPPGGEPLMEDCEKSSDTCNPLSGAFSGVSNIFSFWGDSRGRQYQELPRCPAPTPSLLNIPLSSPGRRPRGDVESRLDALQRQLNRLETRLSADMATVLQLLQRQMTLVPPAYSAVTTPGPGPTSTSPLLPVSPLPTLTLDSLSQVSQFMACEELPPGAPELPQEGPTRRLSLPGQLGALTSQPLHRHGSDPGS

Row | Compound | hERG current change (%, negative = inhibition) at 1uM
1 | Cc1cc(C)c2c(=O)n(CC(=O)NC3CCCC3)sc2n1 | 12.1%
2 | CCOC(=O)c1oc2ccccc2c1NC(=O)c1cc(OC)cc(OC)c1 | 6.96%
3 | O=C(CS(=O)c1cccc(C(F)(F)F)c1)Nc1ccc(Cl)cc1Cl (stereo not drawn) | 9.06%
4 | CN(C)S(=O)(=O)c1cccc(C(=O)c2nccn2C)c1 | 6.54%
5 | Cc1ccc(NC(=O)CN2CCCCC2)c2c1CC(C)(C)O2 | 6.6%
6 | Cc1nc2ccccn2c1C(=O)NNC(=O)Nc1cccc(C(F)(F)F)c1 | 5.42%
7 | O=C(Cn1nnc(N2CCCC2)n1)N/N=C/c1ccc(Cl)cc1 | 10.5%
8 | O=C(O)c1cc2ccccc2c2cc(Br)ccc12 | 17.1%
9 | N#Cc1c(N2CCOCC2)nc(N)c2c(N)nc3c(c12)CC(CCl)O3 (stereo not drawn) | 13%
10 | O=C(NCCn1ccc2ccccc21)C1CCCCC1 | 9.47%
11 | O=c1sc2ccccc2c(N2CCCC2)c1[N+](=O)[O-] | 11%
12 | CCN1N=C(c2ccccc2)CCC1=O | 12.4%
13 | CCOC(=O)C1CCN(C(=O)c2ccc(N3CCOCC3)c([N+](=O)[O-])c2)CC1 | -5.14%
14 | COc1ccccc1N1CCN(C(=O)Cc2c(C(=O)O)[nH]c3ccc(Cl)cc23)CC1 | 10.7%
15 | CCOC(=O)c1ccc(NC(=O)CSc2nnc(CNC(=O)c3c(F)cccc3Cl)o2)cc1 | 5.76%
16 | COC(=O)C1=C(c2ccccc2)C[C@@H]2CC[C@H]1N2C(=O)N1CCC(C)CC1 | 6.57%
17 | CC(C)NC(=O)CN1CCC(O)(c2ccccc2)CC1 | 10.6%
18 | Cc1cc(C(=O)Nc2ccc(OCc3ccccc3)cc2)c(C)o1 | 9.28%
19 | COCC(=O)N1CCC(Oc2ccc(C(=O)N(C)CCCC3CCCC3)cc2)CC1 | 19.3%
20 | COc1cc(Br)c(CC(=O)O)cc1OC | -2.8%

Row | Compound | hERG current change (%, negative = inhibition) at 1uM
21 | O=C(CSc1nnc(-c2cccs2)n1Cc1ccccc1)N1CCc2ccccc2C1 | 6.49%
22 | Cc1cc(-c2csc(N)n2)c(C)n1CCC(C)C.Cl | 5.16%
23 | Cc1ccc(C(C)(C)NC(=O)C2CCC(=O)N(CC3CCCCC3)C2)cc1 (stereo not drawn) | 17.5%
24 | CCOc1cc(S(=O)(=O)N(CC)CC)ccc1F | 3.67%
25 | Cc1ccc(C(=O)NNC(=S)Nc2cccc3ccccc23)s1 | 16.1%
26 | O=C(c1ccc(COc2ccc(Br)cc2)o1)N1N=C(C(F)F)CC1(O)C(F)F (stereo not drawn) | 13.4%
27 | Cc1nc(-c2cc(C#N)c(Sc3cccc(C(F)(F)F)c3)nc2C)cs1 | 6.52%
28 | CCN(CC(=O)NCc1cccs1)S(=O)(=O)c1cccc(Br)c1 | 11.9%
29 | COc1cc(NC(=O)c2ccc(NC3=NC4CS(=O)(=O)CC4S3)cc2)cc(OC)c1OC (stereo not drawn) | 8.58%
30 | COc1ccc(CNC(=O)CN(C2CCCCC2)S(C)(=O)=O)cc1 | -0.49%
31 | O=C(CSc1ccccc1)Nc1cccnc1 | 22.1%
32 | COc1ccccc1N(CC(=O)NC1CCCCC1)S(C)(=O)=O | 21.4%
33 | CCOC(=O)c1ccc(NC(=O)CC2Sc3ncnn3C2=O)cc1 (stereo not drawn) | 19%
34 | COc1cccc(C(=O)N/N=C(/c2ccccc2)c2ccccn2)c1 | 15.7%
35 | Cc1cc(OCC(=O)N(C)Cc2ccccc2)cc(C)c1Cl | 4.53%
36 | C[C@]12CCC(=O)C=C1CC[C@@H]1[C@@H]2[C@@H](O)C[C@]2(C=O)[C@@H](C(=O)CO)CC[C@@H]12 | 10.1%
37 | O=C(NC(c1ccccc1)c1ccccc1)c1ccc(CO)cc1 | -3.21%
38 | O=C1NC(=S)N(c2ccccc2)C(=O)C1C(c1ccncc1)C1C(=O)NC(=S)N(c2ccccc2)C1=O (stereo not drawn) | 13.3%
39 | O=C(NCCc1ccccn1)c1n[nH]c(=O)c2ccccc12 | -13%
40 | CCCc1[nH]nc2c1C1(CCN(C(=O)OCc3ccccc3)CC1)C(C#N)=C(N)O2 | 8.08%

Row | Compound | hERG current change (%, negative = inhibition) at 1uM
41 | O=C1C(Cl)=C(N2CCOCC2)C(=O)N1c1ccccc1 | 9.44%
42 | O=C(O)CC1(CC(=O)N2CCOCC2)CCCC1 | 11.2%
43 | Cc1cccc(C)c1NC(=O)C(=O)NCCCN1CCOCC1 | 11.7%
44 | O=C(c1ccccc1)N1CCN(C(=O)c2ccccc2)C1c1ccccc1 | 8.71%
45 | Cc1onc(-c2ccccc2Cl)c1C(=O)Nc1nnc(-c2ccc(Cl)cc2Cl)s1 | 23%
46 | Cc1nn(C)c(C(=O)NC2C3CC4CC(C3)CC2C4)c1Cl (stereo not drawn) | 8.83%
47 | COc1cc(OC)c2cc[nH]c2c1 | 17.1%
48 | CCC(C)N(C(=O)COc1ccc(NC(C)=O)cc1)C1CCS(=O)(=O)C1 (stereo not drawn) | 21.4%
49 | CCNCC1(c2ccc(OC)c(OC)c2)CCCC1.Cl | 7.56%
50 | COc1ccc(CN2C(=O)c3cccnc3C2Nc2ccc(C)cc2)cc1 (stereo not drawn) | 8.57%
51 | C/C(CC(=O)NC(C)(C)C)=N\NC(N)=S | 13.5%
52 | CCCCOc1ccc(NC2=NC3(CCCCC3)N=C(N)N2)cc1 | 17.1%
53 | Cc1cccc(NC(=S)NCCC(C)C)c1 | 10.2%
54 | COc1ccc(CNC(=O)c2sccc2C)cc1 | 16%
55 | Cc1cccc(/C=N/NC(=O)c2ccc(NC(=O)c3ccc(Cl)cc3)cc2)n1 | 17.9%
56 | Cn1c(Cn2c(=O)sc3ccccc32)nnc1SCC(=O)N1CCCC1 | 3.07%
57 | COCC(=O)N(C)c1nnc(-c2ccc([N+](=O)[O-])cc2)s1 | 8.51%
58 | CCN(CC)C(=N)N1c2ccccc2CCC1C.Cl (stereo not drawn) | 9.27%
59 | CCOCCCNC(=O)c1c[nH]c2cc(OC)ccc2c1=O | 8.14%
60 | CCOC(=O)C1(Cc2cccc(Cl)c2)CCCN(C(=O)c2ccoc2C)C1 (stereo not drawn) | -21.7%
